# Data reported in PubChem BioAssay AID1508642 (National Center for Advancing Translational Sciences (NCATS), 2021).
# Screen size: about 43,000 compounds; about 200 (0.47%) were called active. Not shown: some 12% with an inconclusive outcome. The call rests on the fitted dose curve; in most records, active means well fitted cell-killing curve with a large enough effect; inconclusive means small, poorly fitted or top-dose-only effect, or effect the other way; inactive means flat fitted curve, though single readings scatter. The list shows a part of the results.
# Test: Cell viability qHTS assay in S16 Pmp22-F2sN cells; further: nearly all actives have a fitted effect of over 65% in size
# Details: S16 Pmp22-F2sN Schwann cells viability, CellTiter-Glo, 24 h; series mostly up to 57.5 µM; activity change, negative = cytotoxicity: at the top concentration
# Procedure, shortened: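 S16 Pmp22-F2sN Schwann cells (500-1,000/well) in phenol-red-free DMEM with 10% FBS received 23 nL compound by pin tool for 24 h at 37 °C. Viability was then read as CellTiter-Glo luminescence after 15 min at room temperature.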
# On the % scale 0 is the no-effect control and ±100 the full control effect.
row,Compound,"activity change, negative = cytotoxicity"
1,Cc1cccc(N(C)S(=O)(=O)c2nnc(NC(=O)C(C)Oc3ccccc3)s2)c1 (centres undefined),inactive: -17.7%
2,O=C(NCc1ccc(Cl)cc1)c1ccc2c(c1)nnn2C1CCCC1,inactive: -0.642%
3,COc1ccc(C)cc1NC(=O)CSc1nc(=O)n(Cc2ccco2)c2c1CCC2,inactive: 21%
4,Cc1ccc(-n2cc(-c3ccccc3)c3c(N4CCC(C)CC4)ncnc32)cc1Cl,inactive: -0.707%
5,O=C(NCc1ccccc1)C1CCN(c2ncnc3c2nc2n3CCCCC2)CC1,inactive: 2.43%
6,Cc1ccc(CCNC(=O)C2CC(=O)N(CCc3ccc(C)cc3)C2)cc1 (centres undefined),inactive: 1.31%
7,CCOC(=O)c1cccc(NC(=O)C2COc3ccc(OC)cc3C2)c1 (centres undefined),inactive: -1.78%
8,CC(C)(C)OC(=O)N1CCC(c2c(C(=O)N3CCN(c4cccc(Cl)c4)CC3)cnn2-c2cccc(Cl)c2)CC1,inactive: -10.3%
9,CCOC(=O)C1CCN(C(=O)Cn2nc(C)n3c(cc4c(OC)cccc43)c2=O)CC1,inactive: -1.92%
10,CCC1CN(C(=O)NCc2ccc(F)cc2)c2cc(C)ccc2O1 (centres undefined),inactive: 7.72%
11,O=C(CSc1ccnc(=O)[nH]1)NCc1ccc(F)cc1,inactive: 5.65%
12,COc1cccc(C(c2sc3nc(-c4ccco4)nn3c2O)N2CCC(C)CC2)c1 (centres undefined),inactive: 8.89%
13,CCc1ccc(NC(=O)C2CCCN(S(=O)(=O)c3ccc4[nH]c(=O)ccc4c3)C2)cc1 (centres undefined),inactive: 5.26%
14,CSc1ccc(C2c3c(-c4ccccc4O)n[nH]c3C(=O)N2Cc2ccncc2)cc1 (centres undefined),inactive: -25.9%
15,Cc1cccc2c(=O)cc(CSc3ccccc3NC(=O)c3cccc(Cl)c3)[nH]c12,inactive: -8.74%
16,Cc1ccc2nc(CSc3nnc(NC(=O)C(C)C)s3)cc(=O)n2c1,inactive: 8.62%
17,CCOc1ccc(-c2cc3c(=O)n(Cc4nc(-c5ccc(OCC)c(OC)c5)oc4C)ccn3n2)cc1Cl,inactive: -0.381%
18,CCCCn1cc2c(c1-c1ccc(Br)cc1)c(=O)n(C)c(=O)n2C,inactive: -7.18%
19,O=c1c2sc3ccccc3c2n(Cc2cccc(Cl)c2)c(=O)n1Cc1ccccc1,inactive: 13.8%
20,CCOc1ccc(OCC)c(NC(=O)c2cnn(-c3ccc(F)cc3)c2-n2cccc2)c1,inactive: 11.9%
21,CCc1ccc(-n2nc(C)c3c(C)cc(=O)n(CC(=O)Nc4cc(Cl)ccc4OC)c32)cc1,inactive: -18.7%
22,COc1cc(NC(=O)NCCc2c(C)nn(C)c2C)cc(OC)c1OC,inactive: 5.27%
23,CCCN1CCN(c2nnc(-n3cccc3C(=O)Nc3ccccc3C(F)(F)F)s2)CC1,inactive: -1.39%
24,Cc1cccc(OCC(=O)Nc2c(C(=O)Nc3ccc(F)cc3)oc3ccccc23)c1,inactive: 6.62%
25,Cc1cccc(N2C(=O)CSC23C(=O)N(C)c2ccccc23)c1 (centres undefined),inactive: 10.1%

row,Compound,"activity change, negative = cytotoxicity"
1,Cc1cccc(C(=O)NCCc2nc3ccccc3n2CCC(C)C)c1,inactive: -8.29%
2,COc1ccc(NCc2cc3ccc(OC)cc3n(CC(=O)Nc3ccc(C)c(C)c3)c2=O)cc1,inactive: 9.72%
3,COc1ccc(-c2nnn3c2nc(NCCc2ccc(OC)c(OC)c2)c2ccccc23)cc1,inactive: 15.7%
4,Cc1nn2c(=O)cc(COc3ccc(/C=C(\C#N)C(=O)Nc4ccccc4C)cc3)nc2s1,inactive: -4.02%
5,COc1ccc(OC)c(Nc2nc3ccccc3nc2-n2nc(C)cc2C)c1,inactive: 3.11%
6,CCCCN(CCCC)CCCNC(=O)c1ccc2nc(N3CCCCC3)sc2c1,inactive: 10.7%
7,Cc1ccc(CNC(=O)CCNS(=O)(=O)c2ccc3c(c2)CCCC(=O)N3)cc1,inactive: 13.5%
8,COc1ccccc1NC(=O)c1ncn(-c2ccccc2)n1,inactive: -6.92%
9,Cc1ccccc1NC(=O)c1c(NC(=O)c2ccccc2F)sc2c1CCC(C)C2 (centres undefined),inactive: -3.46%
10,COc1ccc(Cn2ccc3nc(C)c(C(=O)N4CCN(c5ccc(F)cc5)CC4)cc3c2=O)cc1,inactive: -0.226%
11,Cc1c(C(=O)OC2CCC(C)CC2)[nH]c2c1C(=O)CC(c1ccc(F)cc1)C2 (centres undefined),inactive: -4.57%
12,Cc1ccc(C(=O)CSc2nc3cc(C(=O)NC4CCCC4)ccc3c(=O)n2CC2CCCO2)c(C)c1 (centres undefined),inactive: -16.6%
13,CC(C)CCNc1nc2c(-c3ccccc3)nnn2c2ccccc12,inactive: 10.6%
14,COC(=O)c1ccccc1NC(=O)CSc1n[nH]c(CC(C)C)n1,inactive: -11.9%
15,CCOc1ccc(CNC(=O)c2ccc(CSc3nc4ccncc4n3Cc3ccc(F)cc3)cc2)cc1,inactive: -9%
16,COc1cccc(-c2cc(C(=O)Nc3cnn(Cc4ccc(Cl)cc4Cl)c3)no2)c1,inactive: -0.0899%
17,O=C(CC1N=C2c3ccccc3N=C(SCc3cccc(F)c3)N2C1=O)NCc1cccs1 (centres undefined),inactive: -1.5%
18,COc1cccc(NC(=O)c2oc3ccccc3c2NC(=O)c2ccccc2C)c1,inactive: -20.6%
19,O=C(Cn1ncc2c3ccccc3n(Cc3ccccc3)c2c1=O)NCc1ccccn1,inactive: 26.4%
20,COc1ccc(Nc2ncc3c(n2)CCN(Cc2sccc2C)C3)c(OC)c1,inactive: 9.87%
21,COc1ccc2c(CNCCc3ccco3)c(C(=O)O)n(Cc3ccc(C)cc3)c2c1,inactive: 11.7%
22,COc1ccc(C(CNC(=O)c2oc3cc(Br)ccc3c2C)N2CCCCC2)cc1 (centres undefined),inactive: 28%
23,O=[N+]([O-])c1ccc(S(=O)(=O)N2CCn3cccc3C2c2ccc(Br)cc2)cc1 (centres undefined),inactive: -9.15%
24,COc1ccc(NC(=O)CC2C(=O)N(c3ccccc3)C(=O)N2CCc2sccc2C)cc1 (centres undefined),inactive: -1.92%
